Measurements reported in the supplement of paper PMC12217912.
The other results are listed elsewhere or left out. The full chains were built here from the parent and the listed change. Values near 0.05 are background.

B1: TEV protease; numbered along this chain (parent)
chain: MGESLFKGPRDYNPISSSICHLTNESDGHTTSLYGIGFGPFIITNKHLFRRNNGTLVVQSLHGVFKVKDTTTLQQHLVDGRDMIIIRMPKDFPPFPQKLKFREPQREERICLVTTNFQTKSMSSMVSDTSCTFPSGDGIFWKHWIQTKDGQCGSPLVSTRDGFIVGIHSASNFTNTNNYFTSVPKNFMELLTNQEAQQWVSGWRLNADSVLWGGHKVFMVKPEEPFQPVKEATQL

Variants of: B1
Assay: raw area under fraction-flipped curve 0-4 h after induction (AUC4h, not background-subtracted), DNA-recorder readout of cleavage of the substrate (dimensionless); higher = more cleavage of the substrate by the protease variant
Conditions: temperature: 34 °C; time window: 0-4 h after rhamnose induction
Description: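 In vivo DNA recorder in E. coli TOP10(DE3) ΔrhaA at 34 °C. Each TEVp single-site mutant (parent TEVp 0) is paired with a single-site variant of the 7-mer TEVs (canonical ENLYFQ|S). The substrate sits between flexible linkers in a Bxb1-sfGFP-TEVs-SsrA fusion, so cleavage stabilises Bxb1 and speeds flipping of a recombination array, read by NGS. The value is the raw area under the fraction-flipped curve over 0-4 h after rhamnose induction (AUC4h), with ≥20 reads per time point. It is not background-subtracted; inactive controls average about 0.047.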
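Further: Bxb1 expression induced with 0.2% (w/v) L-rhamnose at OD600 near 0.5, cultures sampled hourly, flipped fraction per protease–substrate barcode pair counted by paired-end Illumina sequencing.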

Variant	area with substrate ENLCFQS	area with substrate ENLDFQS	area with substrate ENLFFQS	area with substrate ENLHFQS	area with substrate ENLKFQS	area with substrate ENLNFQS	area with substrate ENLPFQS	area with substrate ENLQFQS	area with substrate ENLRFQS	area with substrate ENLVFQS	area with substrate ENLWFQS	area with substrate ENLEFQS	area with substrate ENLLFQS	area with substrate ENLMFQS	area with substrate ENLGFQS	area with substrate ENLIFQS	area with substrate ENLSFQS	area with substrate ENLTFQS	area with substrate ENLAFQS
H76Y	0.0618	0.0702	0.0821	0.056	0.0726	0.0916	0.0566	0.0529	0.0602	0.0676	0.0488	–	–	–	–	–	–	–	–
D27F	0.0625	0.0542	0.0776	0.0711	0.0744	0.0652	0.0513	0.0636	–	0.0816	–	0.0542	0.0752	0.0702	–	–	–	–	–
C111Q	0.0592	–	0.0844	0.0707	0.085	0.0368	0.0771	0.0242	0.0519	–	–	–	–	–	–	–	–	–	–
Y12T	0.0707	0.0527	0.0924	0.0726	0.063	0.0657	0.0561	–	–	0.0721	–	0.0658	–	–	0.059	0.0819	0.0673	0.0594	–
R109S	0.0597	–	0.0795	0.0625	–	0.06	0.0727	–	0.0856	0.0799	0.0547	–	0.0866	–	–	–	0.0504	–	–
R51Q	0.0644	0.0731	0.0902	0.0775	0.0885	0.0741	0.0533	0.0808	0.0683	0.0464	0.0666	0.0656	–	–	–	0.0484	0.0621	–	–
Q74T	0.0601	0.0678	–	0.0979	0.0504	–	–	0.0615	0.0603	0.0457	–	–	–	0.0573	–	–	0.0597	–	–
Q74N	0.0618	–	0.0923	0.078	–	0.06	–	–	–	–	–	–	–	0.0852	–	–	–	–	–
G150M	0.056	0.044	0.0519	0.058	0.0645	0.0589	0.0403	0.052	–	–	0.0564	0.0589	0.0469	0.0609	–	0.0704	0.0552	0.0374	–
F92Q	0.0706	0.0608	0.0862	0.0621	0.0903	0.0407	0.0663	–	0.065	0.0792	–	–	0.0773	–	–	–	0.0457	–	–
T115I	0.072	0.0522	0.08	–	0.0664	0.0651	0.0459	–	–	–	–	–	–	–	–	–	0.0719	–	–
C131A	0.0619	0.0509	–	0.0884	0.111	–	–	–	–	–	–	0.0704	–	–	–	–	–	–	–
C131G	0.0905	0.062	0.0778	–	–	–	–	0.0705	–	–	0.0716	0.0518	0.0596	–	–	0.0705	0.0722	–	–
T233V	–	0.0692	–	–	–	–	0.0482	–	–	–	0.068	0.0599	–	–	–	–	0.0616	–	0.0676
T233F	–	0.0609	0.0769	0.08	0.0802	0.0788	0.0591	0.0598	–	–	0.0646	0.0626	0.0929	0.0572	–	0.0852	0.0644	–	0.0762
G2W	0.0691	–	0.102	–	0.105	–	–	0.116	–	0.111	–	0.0548	0.0928	–	–	0.0912	–	–	–

Variant	area with substrate ENLCFQS	area with substrate ENLDFQS	area with substrate ENLFFQS	area with substrate ENLHFQS	area with substrate ENLKFQS	area with substrate ENLNFQS	area with substrate ENLPFQS	area with substrate ENLQFQS	area with substrate ENLRFQS	area with substrate ENLVFQS	area with substrate ENLWFQS	area with substrate ENLEFQS	area with substrate ENLLFQS	area with substrate ENLMFQS	area with substrate ENLGFQS	area with substrate ENLIFQS	area with substrate ENLSFQS	area with substrate ENLTFQS	area with substrate ENLAFQS
G2V	0.106	–	0.0946	0.0921	–	–	0.0596	–	–	–	–	0.0814	–	–	–	0.0897	0.0644	–	–
T23F	0.0721	0.0682	0.0955	0.0711	0.073	0.0629	0.0722	0.0505	0.0894	0.0802	0.085	0.0613	0.0622	0.0626	–	–	0.0536	0.0606	–
P93E	0.0868	0.0685	–	0.0809	0.105	–	0.063	0.0828	0.0849	0.133	0.0578	0.0573	0.0805	–	–	–	0.0599	–	–
T70C	0.059	0.0688	0.0712	–	0.0698	0.0629	–	0.0719	0.0604	–	–	0.0533	0.0785	0.0546	0.0743	0.0627	–	–	–
G63P	0.0624	0.0441	0.0649	0.062	0.0578	0.0445	0.0665	0.0526	–	0.0743	0.0419	0.0561	0.0638	–	0.0621	–	0.0489	–	–
H143V	0.059	0.0542	0.0733	0.0604	0.0597	0.0652	0.0594	0.0617	0.075	0.0659	0.0646	0.0637	0.0639	–	0.0701	0.17	0.0615	–	–
H143Q	0.067	0.0651	0.0604	–	0.06	0.0632	0.0791	0.0481	0.056	–	–	0.0714	–	0.0751	–	0.0623	0.0784	–	–
Q105V	0.0633	0.0382	0.0772	0.0732	0.0908	0.0522	0.0474	–	0.0807	0.0667	0.0721	0.0596	0.0749	–	–	–	–	–	–
E108W	0.0535	0.0629	0.0638	0.0469	0.0579	0.0683	0.0535	0.0644	0.0572	–	–	0.0757	0.054	0.0577	–	–	0.0561	–	–
N116G	0.0634	–	–	–	0.182	0.0619	0.0609	0.051	0.0669	–	0.0656	–	0.0726	–	–	0.096	0.0653	–	–
E103N	0.0593	0.0428	0.0833	0.0587	–	0.0985	0.0741	–	–	0.0623	–	–	–	–	–	–	0.062	–	–
F41M	0.0737	0.0651	0.104	0.0662	0.0826	0.0613	0.0541	0.061	0.067	–	0.0806	–	0.0693	–	–	0.0853	–	–	–
L33A	0.0676	0.0579	0.0935	–	0.0561	0.0556	0.0623	–	0.1	–	–	0.0681	–	–	–	0.0661	0.0711	–	–
L56N	0.0422	0.061	0.0409	0.0646	0.0548	0.0442	0.0643	–	0.0551	–	–	0.0433	–	–	0.0259	–	0.0681	–	–
I86M	0.0705	0.0539	0.0859	–	0.0703	0.0551	–	0.0784	0.0336	–	–	–	0.0594	0.0796	–	0.075	0.0587	–	–
I86P	0.0211	0.0387	0.0248	0.0465	0.0516	0.0342	0.0443	–	0.019	–	–	–	0.0257	–	–	–	0.0383	–	–
